The values below come from publication PMC9911399, “Two distinct binding modes provide the RNA-binding protein RbFox with extraordinary sequence specificity”.

First the molecules themselves.
T1: RBFOX1 RRM RbFoxmut (Fox-RRM*) (Homo sapiens, UniProt Q9NWB1 109-208, R118D;E147R;N151S;E152T)
T1 sequence: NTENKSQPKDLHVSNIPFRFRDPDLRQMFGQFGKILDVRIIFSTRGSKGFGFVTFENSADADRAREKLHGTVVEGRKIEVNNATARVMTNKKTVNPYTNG

B1: GUCGCGG (DNA:RNA)
RNA: GGGAGACCGGAAUUCAGAUUGUCCGUCGCGGUUAAAUCCCGUCGUAGCCACCA
DNA 1: CAATCTGAATTCCGGTCTCCC
DNA 2: TGGTGGCTACGACGGGATT
B2: AUGCCAU (DNA:RNA)
RNA: B1 RNA with G25A, C27G, G28C, G30A, G31U
DNA 1: CAATCTGAATTCCGGTCTCCC
DNA 2: TGGTGGCTACGACGGGATT
B3: ACAGUCC (DNA:RNA)
RNA: B1 RNA with G25A, U26C, C27A, C29U, G30C, G31C
DNA 1: CAATCTGAATTCCGGTCTCCC
DNA 2: TGGTGGCTACGACGGGATT
B4: CCCGCCA (DNA:RNA)
RNA: B1 RNA with G25C, U26C, G30C, G31A
DNA 1: CAATCTGAATTCCGGTCTCCC
DNA 2: TGGTGGCTACGACGGGATT
B5: GCGAGGC (DNA:RNA)
RNA: B1 RNA with U26C, C27G, G28A, C29G, G31C
DNA 1: CAATCTGAATTCCGGTCTCCC
DNA 2: TGGTGGCTACGACGGGATT
B6: CUAAUAC (DNA:RNA)
RNA: B1 RNA with G25C, C27A, G28A, C29U, G30A, G31C
DNA 1: CAATCTGAATTCCGGTCTCCC
DNA 2: TGGTGGCTACGACGGGATT
B7: GCCCACU (DNA:RNA)
RNA: B1 RNA with U26C, G28C, C29A, G30C, G31U
DNA 1: CAATCTGAATTCCGGTCTCCC
DNA 2: TGGTGGCTACGACGGGATT
B8: GCACAUC (DNA:RNA)
RNA: B1 RNA with U26C, C27A, G28C, C29A, G30U, G31C
DNA 1: CAATCTGAATTCCGGTCTCCC
DNA 2: TGGTGGCTACGACGGGATT
B9: UUAGAAG (DNA:RNA)
RNA: B1 RNA with G25U, C27A, C29A, G30A
DNA 1: CAATCTGAATTCCGGTCTCCC
DNA 2: TGGTGGCTACGACGGGATT
B10: ACCCGAA (DNA:RNA)
RNA: B1 RNA with G25A, U26C, G28C, C29G, G30A, G31A
DNA 1: CAATCTGAATTCCGGTCTCCC
DNA 2: TGGTGGCTACGACGGGATT
B11: AGGCACC (DNA:RNA)
RNA: GGGAGACCGGAAUUCAGAUUGUCCAGGCACCUUAAAUCCCGUCGUAGCCACCA
DNA 1: CAATCTGAATTCCGGTCTCCC
DNA 2: TGGTGGCTACGACGGGATT
B12: GGAUGGA (DNA:RNA)
RNA: B1 RNA with U26G, C27A, G28U, C29G, G31A
DNA 1: CAATCTGAATTCCGGTCTCCC
DNA 2: TGGTGGCTACGACGGGATT
B13: AAGCGAG (DNA:RNA)
RNA: B11 RNA with G26A, A29G, C30A, C31G
DNA 1: CAATCTGAATTCCGGTCTCCC
DNA 2: TGGTGGCTACGACGGGATT
B14: GUCAAAA (DNA:RNA)
RNA: B1 RNA with G28A, C29A, G30A, G31A
DNA 1: CAATCTGAATTCCGGTCTCCC
DNA 2: TGGTGGCTACGACGGGATT
B15: UCUACGU (DNA:RNA)
RNA: B1 RNA with G25U, U26C, C27U, G28A, G31U
DNA 1: CAATCTGAATTCCGGTCTCCC
DNA 2: TGGTGGCTACGACGGGATT
B16: UGCGGAG (DNA:RNA)
RNA: B1 RNA with G25U, U26G, C29G, G30A
DNA 1: CAATCTGAATTCCGGTCTCCC
DNA 2: TGGTGGCTACGACGGGATT
B17: UGUAGGU (DNA:RNA)
RNA: B11 RNA with A25U, G27U, C28A, A29G, C30G, C31U
DNA 1: CAATCTGAATTCCGGTCTCCC
DNA 2: TGGTGGCTACGACGGGATT
B18: GUCUCAC (DNA:RNA)
RNA: B1 RNA with G28U, G30A, G31C
DNA 1: CAATCTGAATTCCGGTCTCCC
DNA 2: TGGTGGCTACGACGGGATT
B19: ACUCGCC (DNA:RNA)
RNA: B11 RNA with G26C, G27U, A29G
DNA 1: CAATCTGAATTCCGGTCTCCC
DNA 2: TGGTGGCTACGACGGGATT
B20: UAAAUCG (DNA:RNA)
RNA: B11 RNA with A25U, G26A, G27A, C28A, A29U, C31G
DNA 1: CAATCTGAATTCCGGTCTCCC
DNA 2: TGGTGGCTACGACGGGATT
B21: UGCACAU (DNA:RNA)
RNA: B1 RNA with G25U, U26G, G28A, G30A, G31U
DNA 1: CAATCTGAATTCCGGTCTCCC
DNA 2: TGGTGGCTACGACGGGATT
B22: UUAUUGU (DNA:RNA)
RNA: B1 RNA with G25U, C27A, G28U, C29U, G31U
DNA 1: CAATCTGAATTCCGGTCTCCC
DNA 2: TGGTGGCTACGACGGGATT
B23: UGAAUAG (DNA:RNA)
RNA: B11 RNA with A25U, G27A, C28A, A29U, C30A, C31G
DNA 1: CAATCTGAATTCCGGTCTCCC
DNA 2: TGGTGGCTACGACGGGATT
B24: GGCCGAA (DNA:RNA)
RNA: B11 RNA with A25G, G27C, A29G, C30A, C31A
DNA 1: CAATCTGAATTCCGGTCTCCC
DNA 2: TGGTGGCTACGACGGGATT
B25: UUGUCGA (DNA:RNA)
RNA: B1 RNA with G25U, C27G, G28U, G31A
DNA 1: CAATCTGAATTCCGGTCTCCC
DNA 2: TGGTGGCTACGACGGGATT
B26: UCUGCCA (DNA:RNA)
RNA: B1 RNA with G25U, U26C, C27U, G30C, G31A
DNA 1: CAATCTGAATTCCGGTCTCCC
DNA 2: TGGTGGCTACGACGGGATT
B27: UACCCCA (DNA:RNA)
RNA: B11 RNA with A25U, G26A, G27C, A29C, C31A
DNA 1: CAATCTGAATTCCGGTCTCCC
DNA 2: TGGTGGCTACGACGGGATT
B28: UCUGUUA (DNA:RNA)
RNA: B1 RNA with G25U, U26C, C27U, C29U, G30U, G31A
DNA 1: CAATCTGAATTCCGGTCTCCC
DNA 2: TGGTGGCTACGACGGGATT
B29: AUAUCAG (DNA:RNA)
RNA: B1 RNA with G25A, C27A, G28U, G30A
DNA 1: CAATCTGAATTCCGGTCTCCC
DNA 2: TGGTGGCTACGACGGGATT
B30: CCAGGUC (DNA:RNA)
RNA: B11 RNA with A25C, G26C, G27A, C28G, A29G, C30U
DNA 1: CAATCTGAATTCCGGTCTCCC
DNA 2: TGGTGGCTACGACGGGATT
B31: GAUGGCC (DNA:RNA)
RNA: B11 RNA with A25G, G26A, G27U, C28G, A29G
DNA 1: CAATCTGAATTCCGGTCTCCC
DNA 2: TGGTGGCTACGACGGGATT

Residue numbers refer to the chain shown, from its start. This is one part of the list.

For the test, the target named is T1, RBFOX1 RRM RbFoxmut (Fox-RRM*). The experiment in a line: EMSA; HiTS-Eq, 1 nM pool, 10 min; buffer printed only for the single-RNA assays: 10 mM Tris pH 7.5, 150 mM NaCl, 3.4 mM EDTA, 0.001% NP-40, 30 C. The conditions noted are these: tags: His6 N-terminal (pET28a); label: 5' 32P. In outline: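 Purified wild-type or mutant RbFox RRM at increasing concentrations was equilibrated with 1 nM of 5′-radiolabelled RNA carrying 7 randomized nucleotides for 10 min in 50 µL. Unbound RNA was separated by 8% native PAGE and sequenced. Relative association constants came from read-count changes of each RNA species compared with the control reaction, normalised to the cognate motif.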
Consider B1, for which the binding signal was 0.0978 KA relative to UGCAUGU.
As to B2, the binding signal was 0.0816 KA relative to UGCAUGU.
The value for B3 was 0.0589 KA relative to UGCAUGU; that for B4 was 0.112 KA relative to UGCAUGU.
The value for B5 was 0.0796 KA relative to UGCAUGU; that for B6 was 0.117 KA relative to UGCAUGU.
The value for B7 was 0.064 KA relative to UGCAUGU; that for B8 was 0.076 KA relative to UGCAUGU; that for B9 was 0.103 KA relative to UGCAUGU.
For the molecule B10, the binding signal was 0.103 KA relative to UGCAUGU.
For the molecule B11, the binding signal is 0.0617 KA relative to UGCAUGU.
B12: the binding signal is 0.0824 KA relative to UGCAUGU.
As for B13, the figure is 0.138 KA relative to UGCAUGU; as for B14, 0.115 KA relative to UGCAUGU.
B15: the binding signal is 0.118 KA relative to UGCAUGU.
As for B16, the binding signal is 0.114 KA relative to UGCAUGU.
The value for B17 was 0.126 KA relative to UGCAUGU.
For the molecule B18, the binding signal was 0.0695 KA relative to UGCAUGU.
The value for B19 was 0.0934 KA relative to UGCAUGU; that for B20 was 0.0677 KA relative to UGCAUGU.
As for B21, the binding signal is 0.0893 KA relative to UGCAUGU.
For B22, the binding signal was 0.158 KA relative to UGCAUGU.
The value for B23 was 0.0871 KA relative to UGCAUGU.
As for B24, the figure is 0.066 KA relative to UGCAUGU; as for B25, 0.102 KA relative to UGCAUGU; as for B26, 0.0841 KA relative to UGCAUGU.
As for B27, the figure is 0.0775 KA relative to UGCAUGU; as for B28, 0.112 KA relative to UGCAUGU; as for B29, 0.0949 KA relative to UGCAUGU.
For the molecule B30, the binding signal is 0.107 KA relative to UGCAUGU.
The value for B31 was 0.151 KA relative to UGCAUGU.
